Measurements: publication PMC12040169 (PLOS Biology, 2025)
The other results are listed elsewhere or left out.

What follows are compounds tested on T1, C. trachomatis L2/434/Bu expressing GFP (CTL2-GFP). Details: total inclusion area; 28.5 h, 10 µM; inhibitor.
T1 construct: L2/434/Bu GFP intracellular growth in HeLa cells
Parameters: species or system HeLa; C. trachomatis total inclusion area by high-content imaging, normalised to DMSO
Outline: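 Imaging read-out: GFP inclusions and Hoechst nuclei captured by high-content imaging after fixation. Inclusion area/number = chlamydial growth; nuclei count = host cell viability. MIC calculated per earlier method.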

In order of falling “% of control remaining” value:
1. CCOC(=O)Cn1nc(C)c(Cc2c(Cl)cccc2Cl)c1CC [CBK113223]  124.367
2. COc1ccc(Nc2cccc(-c3cnc(OC)nc3OC)n2)cc1 [CBK036825]  117.24
3. COc1ccc(C(=O)/C=C(\Nc2cccc(C(F)(F)F)c2)C(=O)O)cc1 [CBK264387]  111.584
4. CCn1c(SCC(=O)Nc2ccc(C#N)cc2)nnc1-c1ccncc1 [CBK270102]  109.744
5. O=C(Nc1ccc(S(=O)(=O)Nc2nccc(C3Cc4ccccc4C(=O)O3)n2)cc1)c1ccccc1 (centres unmarked) [CBK267306]  105.547
6. N#Cc1ccc(C(=O)N2C[C@@H]3C[C@H](C2)c2c(-c4cccc(C#N)c4)ccc(=O)n2C3)cc1 [CBK289196]  100.872
7. COc1ccc2[nH]c3c(c2c1)CCNC31CCN(C(=O)NC(C)(C)C)CC1 [CBK047069]  100.477
8. O=C(c1cnccc1C(F)(F)F)N1CCc2ccccc21 [CBK200401]  100.01
9. Cc1ccc2cc(S(=O)(=O)NCCCC(=O)O)ccc2c1 [CBK299818]  97.9713
10. CC(=O)Cn1nnnc1C [CBK020588]  95.5298
11. CN(CC(N)=O)c1nc(-c2cccnc2)nc2ccccc12 [CBK306346]  93.6165
12. CCN(c1ccccc1C(=O)O)S(=O)(=O)/C=C/c1ccccc1 [CBK287236]  88.7141
13. O=C(/C=C/c1ccc2c(c1)OCO2)NCc1ccc(-c2csnn2)cc1 [CBK149297]  87.4518
14. Nc1nc2cccnc2cc1-c1cccc(C(F)(F)F)c1 [CBK081200]  87.4227
15. COc1ccc(-c2cnc(NCCOc3ccccc3)c(C(=O)NCC3COc4ccccc4O3)c2)cc1 (centres unmarked) [CBK076332]  85.9183
16. c1ccc2c(Sc3cncc(N4CCCC4)n3)cccc2c1 [CBK089594]  85.2412
17. CSc1ncccc1C(=O)NCc1ccc(NC(C)=O)cc1 [CBK305009]  82.5041
18. O=C(c1ccc(N2CCSCC2)nc1)N1CCC(N2CCOCC2)CC1 [CBK306582]  76.9435
19. Cc1ccc(Nc2cc(-c3ccsc3)ncn2)cc1NS(C)(=O)=O [CBK091149]  63.3938
20. C#CCn1c(=O)n(C)n(C)c1=O [CBK023151]  61.1565
21. COc1ccc(/C=C/C(=O)O)cc1S(=O)(=O)NCc1ccccc1 [CBK287252]  60.5613
22. Cc1nc(C)c(CCC(=O)Nc2cccc(F)c2)c(=O)[nH]1 [CBK305026]  51.9118
23. Cc1ccn(-c2ccc(N3CCC4(CCOC4)C3)nn2)n1 (centres unmarked) [CBK306302]  35.173
